PMC4336329 (PLoS ONE, 2015)
Screen size: about 310,000 compounds; about 14,000 (4.5%) showed an effect of 50% or more. The effect is printed as a negative number. The list shows a part of the results.

The molecules below were run against human ether-à-go-go-related gene (hERG) potassium channel (human, UniProt Q12809) (assay: primary screen, population patch clamp on CHO cells stably expressing hERG).
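Note: peak tail current of the secondary pulse compared with the same well before compound.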

human ether-à-go-go-related gene (hERG) potassium channel, sequence (Q12809 whole entry, looked up): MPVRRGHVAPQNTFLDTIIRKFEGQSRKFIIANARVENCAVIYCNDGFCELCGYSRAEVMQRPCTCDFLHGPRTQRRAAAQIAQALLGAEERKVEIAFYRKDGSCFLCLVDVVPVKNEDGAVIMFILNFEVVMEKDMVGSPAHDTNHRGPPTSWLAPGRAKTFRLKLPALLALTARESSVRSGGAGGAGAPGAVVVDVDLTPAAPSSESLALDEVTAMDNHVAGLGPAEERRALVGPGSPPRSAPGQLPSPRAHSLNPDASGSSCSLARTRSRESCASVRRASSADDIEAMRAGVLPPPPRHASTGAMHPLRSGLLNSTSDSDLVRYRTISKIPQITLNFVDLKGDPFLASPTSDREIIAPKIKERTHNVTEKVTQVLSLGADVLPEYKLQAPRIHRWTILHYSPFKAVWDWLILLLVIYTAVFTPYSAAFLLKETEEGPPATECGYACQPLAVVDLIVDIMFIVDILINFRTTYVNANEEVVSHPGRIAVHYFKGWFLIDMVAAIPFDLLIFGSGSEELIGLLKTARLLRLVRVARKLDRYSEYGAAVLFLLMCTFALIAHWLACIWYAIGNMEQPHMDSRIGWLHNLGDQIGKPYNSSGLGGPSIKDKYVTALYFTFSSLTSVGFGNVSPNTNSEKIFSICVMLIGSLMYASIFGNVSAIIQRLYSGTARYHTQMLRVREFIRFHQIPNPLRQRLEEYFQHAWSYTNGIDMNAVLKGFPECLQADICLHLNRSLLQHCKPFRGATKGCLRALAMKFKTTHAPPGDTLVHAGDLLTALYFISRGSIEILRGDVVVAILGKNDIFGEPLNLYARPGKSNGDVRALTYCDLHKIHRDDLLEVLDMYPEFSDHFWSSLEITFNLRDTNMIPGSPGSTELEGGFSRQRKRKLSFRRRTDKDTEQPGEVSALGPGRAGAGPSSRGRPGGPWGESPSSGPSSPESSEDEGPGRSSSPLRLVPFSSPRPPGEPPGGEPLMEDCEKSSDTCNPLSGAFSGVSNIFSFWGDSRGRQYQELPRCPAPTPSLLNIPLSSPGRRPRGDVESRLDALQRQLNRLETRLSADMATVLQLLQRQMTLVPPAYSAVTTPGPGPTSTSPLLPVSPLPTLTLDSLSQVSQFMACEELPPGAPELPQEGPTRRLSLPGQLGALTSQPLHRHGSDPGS

| Structure (SMILES) | hERG current change (%, negative = inhibition) at 10uM |
| --- | --- |
| O=C1Cc2cc([N+](=O)[O-])ccc2N1c1c(Cl)cccc1Cl | -13.9% |
| N#Cc1ccccc1NC(=O)CSc1nnc(-c2ccccc2O)n1-c1ccccc1 | 20.9% |
| O=C(NC1CCN(Cc2ccccc2)CC1)c1ccc(N2CC3CC(C2)c2cccc(=O)n2C3)c([N+](=O)[O-])c1 (stereo not drawn) | 18.4% |
| COc1ccc(C2(C)ON(c3ccccc3C(F)(F)F)C2=O)cc1 (stereo not drawn) | 5.36% |
| COc1ccc2ccc(=O)oc2c1CC=C(C)C | -3.17% |
| COc1ccc(C(CCNC(C)c2ccccc2)c2ccc(F)cc2)cc1 (stereo not drawn) | -54.6% |
| S=C(Nc1ccc(Cl)cc1Cl)NC1CCN(Cc2ccccc2)CC1 | -2.76% |
| COc1ccc(CSc2nc3ccccc3c(=O)n2CCCN2CCOCC2)cc1F | -53.4% |
| Cc1cc2nccc(-c3ccccn3)n2n1 | 28.3% |
| CC(/C=N/NC(=O)c1cc(-c2cccs2)[nH]n1)=C\c1ccccc1 | 11.1% |
| COc1ccc(NC(=O)CSc2ccc(NC(C)=O)cc2)cc1S(=O)(=O)N1CCCCC1 | -0.801% |
| CCc1ccc(C2=NN(CCC(=O)NC3CC3)C(=O)CC2)cc1 | -4.93% |
| Cc1cc(C)cc(Nc2nc3ccc(C)cc3n3cnnc23)c1 | 9.39% |
| Cc1cccc(NC(=O)c2cccc(C(=O)Nc3cccc(C)n3)c2)n1 | -32.7% |
| COC(=O)c1sc(N2C(=O)C(O)=C(C(=O)c3ccc(C)o3)C2c2ccc(OC)c(OC)c2)nc1C (stereo not drawn) | 26.9% |
| Oc1ccc(Br)cc1CNc1nccs1 | 11.1% |
| O=C(c1cc2cc([N+](=O)[O-])ccc2oc1=O)N1CCN(c2ncccn2)CC1 | -0.285% |
| Cc1cccn2c(=O)nc(SCC(=O)NC3CCCC3)nc12 | 7.83% |
| CCOC(=O)Nc1ccc2c(c1)N(C(=O)OCCN(C)C)c1ccccc1CC2.Cl | -43.2% |
| CS/C(=C\[N+](=O)[O-])Nc1ccccc1 | 17.9% |
| C/C(CC(=O)Nc1ccc(Cl)c(C(F)(F)F)c1)=N\NC(=O)c1cnccn1 | -25.8% |
| COc1cc(C(=O)NCc2ccc3c(c2)OCO3)c([N+](=O)[O-])cc1OC | 0.371% |
| CN(C)CCOC1c2ccccc2CSc2ccccc21.O=CO (stereo not drawn) | -15.8% |
| O=C1CCCC/C1=C\Nc1ccccc1C(=O)O | 3.67% |
